Inconclusive results, whose numbers are uncertain, are shown with a selection of clear calls. A potency beside an inconclusive call is a rough fit, not a confirmed value. Activity calls are given as the source filed them. Calls come from the whole dose curve; as a rule, active = well fitted activation curve with a large enough effect in the signal ratio, with a control signal flat (not every such curve was filed as active); inconclusive = small, poorly fitted or top-dose-only effect, or effect the other way, or a change in a side signal; inactive = flat fitted curve, though single readings scatter; the % refers to the signal ratio.
Test: qHTS Assay for Identification of Small Molecule Agonists for Hypoxia Response Element Signaling Pathway (AID 914); for activation: top concentration of the series differs between compounds; % of control where 0% means no effect
Conditions: ME-180 (cervical carcinoma) HRE-bla reporter, beta-lactamase ratio, CoCl2, 17 h; activation: active compounds read high
Outline: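 Read-out: CCF4 FRET ratio of 460nm to 530nm emission (excitation 405nm) after 2.5 hours at room temperature, taken from HRE-bla ME-180 cells that had been exposed to compound and EC50 CoCl2 for 17 hours.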
Potency is the fitted concentration of half-maximal effect; tags give direction and shape of the fitted curve or compound fluorescence and quenching.

Compound	Potency	activation
COCC(=O)N1CCC2(CCCN(C(=O)Nc3cccc(F)c3)C2)CC1	inconclusive: 0.501 µM [activator, single point]	–
COc1ccc(O[C@H]2C=C[C@@H](c3ccccc3)O[C@H]2COC(=O)CC/C(C)=N\OC[C@@H](O)[C@H]2O[C@H]3OC(C)(C)O[C@H]3[C@@H]2O)cc1	–	inconclusive: 2.95%
CCOc1ccc(-c2nnc3sc(-c4c(OC)cccc4OC)nn23)cc1	inconclusive: 6.31 µM [inhibitor, partial curve]	–
Cn1c2c(c(=O)n(C)c1=O)C(NC(=O)C(C)(C)C)(C(F)(F)F)C(=O)N2 (stereo unspecified)	–	inactive: 8.6%
NS(=O)(=O)c1ccc(N=C2C(=O)Nc3ccccc32)cc1	–	inactive: -6.17%
CCN1CCc2c(C#N)c(NCc3ccccc3)nc(N(CC)CC)c2C1	inconclusive: 1.58 µM [inhibitor, partial curve]	–
CCOc1ccc(NC(=O)CSC2=C(C#N)C(c3ccc4c(c3)OCO4)CC(=O)N2)cc1 (stereo unspecified)	–	inactive: -0.0576%
COc1ccc(/C(O)=C2/C(=O)C(=O)N(Cc3ccco3)C2c2cccs2)cc1 (stereo unspecified)	inconclusive: 5.01 µM [inhibitor, partial curve]	–
CCc1nc(NCC2CCCO2)c(C#N)c2c1COC(C)(C)C2 (stereo unspecified)	–	inactive: -11.3%
C[N+](C)(C)CC(=O)N/N=C\c1c(O)ccc2ccccc12	inconclusive: 3.16 µM [inhibitor, single point]	–
CCCCc1nc(N2CCOCC2)c(C#N)c2c1CCCC2	–	inconclusive: -0.0043%
